Source: the supplement of paper PMC5499739
Whole data set: some 16,000 sequences, median “Z-score” near -0.37, cut for the highest 2% near 3.2. The list shows a part of the results.

Each sequence was assayed on RBM10 RRM1-ZnF (GST-tagged construct) (assay: RNAcompete 7-mer binding Z-score; higher = stronger binding preference).
Description: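 RNAcompete: 20 pmol GST-tagged RBM10 RNA-binding constructs were incubated with a designed RNA pool of about 241,000 sequences up to 41 nt (1.5 nmol) on glutathione beads for 30 min at 4 °C and washed. Bound RNAs were identified by microarray hybridisation. Each RNA 7-mer is scored by a one-sided Z-score of its enrichment, computed over probes that contain the 7-mer within longer pool sequences.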
In the case of CGAAGAU, the “RNAcompete 7-mer binding Z-score” value was -0.451.
For UCAGUAC, the “RNAcompete 7-mer binding Z-score” value was -0.451.
In the case of GCAAAGU, the “RNAcompete 7-mer binding Z-score” value was 0.287.
For CACAAUU, the “RNAcompete 7-mer binding Z-score” value was -0.636.
GAACACC was tested, and the “RNAcompete 7-mer binding Z-score” value was -0.483.
AUGGUUC was tested, and the “RNAcompete 7-mer binding Z-score” value was 0.14.
In the case of CACGCAA, the “RNAcompete 7-mer binding Z-score” value was -0.464.
In the case of AGACGUG, the “RNAcompete 7-mer binding Z-score” value was 0.261.
With AUUACCA the “RNAcompete 7-mer binding Z-score” value was -0.772.
CGUUUCG was tested, and the “RNAcompete 7-mer binding Z-score” value was -0.503.
In the case of ACCGUGA, the “RNAcompete 7-mer binding Z-score” value was -0.529.
GGCCCAU was tested, and the “RNAcompete 7-mer binding Z-score” value was -0.711.
GUUUCCU was tested, and the “RNAcompete 7-mer binding Z-score” value was -0.678.
In the case of GUAAGGC, the “RNAcompete 7-mer binding Z-score” value was 1.67.
UUAGACG was tested, and the “RNAcompete 7-mer binding Z-score” value was -0.00246.
For UGCUAGA, the “RNAcompete 7-mer binding Z-score” value was -0.233.
For CAACUAC, the “RNAcompete 7-mer binding Z-score” value was -0.591.
With ACGCAUA the “RNAcompete 7-mer binding Z-score” value was -0.383.
CGGCGUU was tested, and the “RNAcompete 7-mer binding Z-score” value was -0.0122.
UGGGAGU was tested, and the “RNAcompete 7-mer binding Z-score” value was 2.27.
With UUGUACA the “RNAcompete 7-mer binding Z-score” value was -0.379.
For CGUCGAA, the “RNAcompete 7-mer binding Z-score” value was -0.347.
With CGUUCGU the “RNAcompete 7-mer binding Z-score” value was -0.542.
In the case of ACGAACC, the “RNAcompete 7-mer binding Z-score” value was -0.548.
UUGAAGU was tested, and the “RNAcompete 7-mer binding Z-score” value was -0.262.
With UGACGUC the “RNAcompete 7-mer binding Z-score” value was -0.565.
With GCAUGUA the “RNAcompete 7-mer binding Z-score” value was -0.253.
CCGAAAC was tested, and the “RNAcompete 7-mer binding Z-score” value was -0.74.
For CCAGAUC, the “RNAcompete 7-mer binding Z-score” value was -0.594.
With AGAUUCU the “RNAcompete 7-mer binding Z-score” value was -0.756.
For GGUUUGC, the “RNAcompete 7-mer binding Z-score” value was 0.962.
In the case of CGCUCAU, the “RNAcompete 7-mer binding Z-score” value was -0.769.
In the case of UUCGUAG, the “RNAcompete 7-mer binding Z-score” value was -0.35.
In the case of UAUAAGG, the “RNAcompete 7-mer binding Z-score” value was 1.24.
For AGAUCCC, the “RNAcompete 7-mer binding Z-score” value was -0.87.
GACAAUA was tested, and the “RNAcompete 7-mer binding Z-score” value was -0.0869.
With CCUUAAU the “RNAcompete 7-mer binding Z-score” value was -0.72.
In the case of CCGGGCG, the “RNAcompete 7-mer binding Z-score” value was 0.807.
For UAAAGCU, the “RNAcompete 7-mer binding Z-score” value was -0.655.
In the case of CCCCGCC, the “RNAcompete 7-mer binding Z-score” value was -0.236.
With CCUGUUC the “RNAcompete 7-mer binding Z-score” value was -0.857.
With CACCCAA the “RNAcompete 7-mer binding Z-score” value was -0.629.
For AGCUUGA, the “RNAcompete 7-mer binding Z-score” value was -0.318.
With AGCGUCC the “RNAcompete 7-mer binding Z-score” value was -0.707.
With CGCUUCC the “RNAcompete 7-mer binding Z-score” value was -0.587.
With CCUCGAU the “RNAcompete 7-mer binding Z-score” value was -0.717.
With GGACUAG the “RNAcompete 7-mer binding Z-score” value was 0.953.
For GAUUACG, the “RNAcompete 7-mer binding Z-score” value was 0.0755.
For CGGUUGG, the “RNAcompete 7-mer binding Z-score” value was 2.56.
In the case of AGCAGGU, the “RNAcompete 7-mer binding Z-score” value was 1.8.
With GUUAAAC the “RNAcompete 7-mer binding Z-score” value was -0.162.
For GUGGAAA, the “RNAcompete 7-mer binding Z-score” value was 2.63.
AGUCGCU was tested, and the “RNAcompete 7-mer binding Z-score” value was -0.35.
With CACACGG the “RNAcompete 7-mer binding Z-score” value was 0.433.
For UGUCGCU, the “RNAcompete 7-mer binding Z-score” value was -0.396.
With AUCGCGU the “RNAcompete 7-mer binding Z-score” value was -0.412.
For GUCGCAC, the “RNAcompete 7-mer binding Z-score” value was -0.207.
For GGGUUUA, the “RNAcompete 7-mer binding Z-score” value was 2.09.
For UUUAAUA, the “RNAcompete 7-mer binding Z-score” value was -0.626.
With UAGUCAG the “RNAcompete 7-mer binding Z-score” value was 0.3.
In the case of AAUUUGC, the “RNAcompete 7-mer binding Z-score” value was -0.798.
GGGUUCC was tested, and the “RNAcompete 7-mer binding Z-score” value was 0.683.
UGAUAGG was tested, and the “RNAcompete 7-mer binding Z-score” value was 2.18.
CGUGUGG was tested, and the “RNAcompete 7-mer binding Z-score” value was 1.16.
ACGCGAG was tested, and the “RNAcompete 7-mer binding Z-score” value was 0.056.
With CACGUUU the “RNAcompete 7-mer binding Z-score” value was -0.815.
CGAGUUA was tested, and the “RNAcompete 7-mer binding Z-score” value was -0.301.
In the case of ACCUCCG, the “RNAcompete 7-mer binding Z-score” value was -0.681.
With GCUGUGC the “RNAcompete 7-mer binding Z-score” value was -0.0252.
With AGGUACA the “RNAcompete 7-mer binding Z-score” value was 0.745.
For UUCCUGC, the “RNAcompete 7-mer binding Z-score” value was -0.779.
For UAUUUAC, the “RNAcompete 7-mer binding Z-score” value was -0.841.
For AUGACAC, the “RNAcompete 7-mer binding Z-score” value was -0.292.
In the case of CACAGAC, the “RNAcompete 7-mer binding Z-score” value was -0.292.
With UUCGCAU the “RNAcompete 7-mer binding Z-score” value was -0.75.
CAUAGAU was tested, and the “RNAcompete 7-mer binding Z-score” value was -0.5.
In the case of GCUCCAG, the “RNAcompete 7-mer binding Z-score” value was -0.344.
CAACAAA was tested, and the “RNAcompete 7-mer binding Z-score” value was -0.503.
CCCGGCC was tested, and the “RNAcompete 7-mer binding Z-score” value was -0.558.
With CAGAUGC the “RNAcompete 7-mer binding Z-score” value was -0.0739.
In the case of GCCACUA, the “RNAcompete 7-mer binding Z-score” value was -0.535.
In the case of AAUCAUA, the “RNAcompete 7-mer binding Z-score” value was -0.587.
With AUCGUCG the “RNAcompete 7-mer binding Z-score” value was -0.451.
For CGGGCGU, the “RNAcompete 7-mer binding Z-score” value was 1.23.
ACACGCC was tested, and the “RNAcompete 7-mer binding Z-score” value was -0.61.
For AUGACUA, the “RNAcompete 7-mer binding Z-score” value was -0.288.
For GGCGACC, the “RNAcompete 7-mer binding Z-score” value was 0.394.
For GAAAGUG, the “RNAcompete 7-mer binding Z-score” value was 1.57.
AUGAGCU was tested, and the “RNAcompete 7-mer binding Z-score” value was 0.056.
For CACUUGA, the “RNAcompete 7-mer binding Z-score” value was -0.581.
For AGGCGAG, the “RNAcompete 7-mer binding Z-score” value was 1.37.
GCAUUAA was tested, and the “RNAcompete 7-mer binding Z-score” value was -0.539.
In the case of ACACUCU, the “RNAcompete 7-mer binding Z-score” value was -0.821.
GAAUCGG was tested, and the “RNAcompete 7-mer binding Z-score” value was 1.41.
In the case of CGAGUCU, the “RNAcompete 7-mer binding Z-score” value was -0.483.
With CCUCAUA the “RNAcompete 7-mer binding Z-score” value was -0.906.
AUUCCGC was tested, and the “RNAcompete 7-mer binding Z-score” value was -0.886.
AAACGUU was tested, and the “RNAcompete 7-mer binding Z-score” value was -0.344.
With CGAAACA the “RNAcompete 7-mer binding Z-score” value was -0.399.
In the case of ACCAUAC, the “RNAcompete 7-mer binding Z-score” value was -0.776.
For UUCUCAU, the “RNAcompete 7-mer binding Z-score” value was -0.73.
For CCCUGUC, the “RNAcompete 7-mer binding Z-score” value was -0.636.
AGGAGAC was tested, and the “RNAcompete 7-mer binding Z-score” value was 1.22.
For GAGGGGU, the “RNAcompete 7-mer binding Z-score” value was 3.59.
With ACGCAUC the “RNAcompete 7-mer binding Z-score” value was -0.704.
For UUGAGCC, the “RNAcompete 7-mer binding Z-score” value was -0.529.
GAUCAGG was tested, and the “RNAcompete 7-mer binding Z-score” value was 1.71.
For CGAACGG, the “RNAcompete 7-mer binding Z-score” value was 1.21.
With UGAUAUC the “RNAcompete 7-mer binding Z-score” value was -0.353.
In the case of ACGAAUA, the “RNAcompete 7-mer binding Z-score” value was -0.24.
With ACCCUGA the “RNAcompete 7-mer binding Z-score” value was -0.347.
In the case of AUAUGAG, the “RNAcompete 7-mer binding Z-score” value was 0.673.
In the case of AACAACA, the “RNAcompete 7-mer binding Z-score” value was -0.129.
UGCCAGG was tested, and the “RNAcompete 7-mer binding Z-score” value was 0.42.
AACACAA was tested, and the “RNAcompete 7-mer binding Z-score” value was -0.331.
For UUCAUUA, the “RNAcompete 7-mer binding Z-score” value was -0.519.
With UGGUAAC the “RNAcompete 7-mer binding Z-score” value was 0.982.
